Our source for the self-cleavage values is the RNAGym collection of RNA variant scans (doi:10.1093/nar/gkz1192).

Read counts are not given, so values of variants with three or more changes are uncertain.

To fix the notation:
B1: CPEB3 Ribozyme (parent)
chain: UAACAGGGGGCCACAGCAGAAGCGUUCACGUCGCAGCCCCUGUCAGAUUCUGGUGAAUCUGCGAAUUCUGCUGUAUAUCUC

The variants in this data set derive from B1. In words: self-cleavage, relative activity (ratio to wild type); higher = more cleavage; in vitro, sequencing. The procedure, abridged: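 Libraries of CPEB3 self-cleaving ribozyme mutants came from rounds of error-prone PCR and carried barcodes, which DNA sequencing matched to variants. In vitro transcription used T7 RNA polymerase at 37°C for 5 hours, with a further 15 min in DNase I before EDTA stopped the reaction; the ribozymes cleaved during both steps. The RNA was reverse transcribed with template switching and sequenced on Illumina. Relative activity is the cleaved/total read fraction of a variant divided by that of the unmutated ribozyme, averaged over three batches with at least 5 reads.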
Consider A3U U49C U72A, for which the self-cleavage was found to be 0.23.
The result for C4G C40U U43C A45U A47U reads 0.37; that for A3U U41A G46U U58A, 0.16; that for C4G G8C U67C, 0.04.
The result for A3U A57G A64U reads 0.29.
Under C4G C29U A35U C38U U66C U67A stands 0.24; under C4G A5G A21G A28G U78A, 0.66; under C4G A5U A20G G24A A35G A77G, 0.1.
Turning to A3U U26C A35U A65G C68A, the self-cleavage worked out at 0.08.
The result for A3U A47U U80C reads 0.38; that for A3U C12U C37G U43A A47G U51C, 0.28.
Under A3U U31G A45U A64G stands 0.23.
With A3U C23U A57G U78C, the self-cleavage is 0.09.
The result for C4G C17G A21G U41C U60C reads 0.08; that for A3U G10A C44A U49A U51A A56C U60C, 0.
Under A3U G6U A15G U26A U48G U54C stands 0.31.
The result for A3U G30C U41C U60C reads 0.2; that for A3U U25C G33A, 0.48.
In the case of A3U C50A C62G U80C, the self-cleavage was found to be 0.27.
As to A3U U25C A35G C40U U80C, the self-cleavage was 0.21.
Under C4A U41C U54C stands 1.11; under A3U U26C U58C, 0.48; under C4G A13G U49C U80G, 0.35.
Under A3U C11A U43C U67G U76C stands 0.05.
For C4G A20U A21G G52U, the self-cleavage was 0.22.
The result for A3U G7A A15U C62G U72C reads 0.06.
Take A3U A47G U54C U60A U74A A75G: the self-cleavage came out at 0.35.
Under C4U A5G U69C stands 0.46.
The result for A3U U26C C32U G61A U69A reads 0.07.
Under A3U G52A U69A stands 0.59; under C4U A13G U25C U58A, 0.21.
Turning to C4G A5G A21G C29A U78C, the self-cleavage was 0.23.
Under C4G A21G U31C A75G U78A stands 0.44; under A3U G9U A28U U78C, 0.06.
Under C4G A18G U26C U80C stands 0.79; under A3U C27A U31C C38A G42A A77U, 0.22; under C4G C11G U31C U69A U76A, 0.1.
The result for A3U U26A U41C A45G U48C U60A U67C reads 0.21; that for C4G G10A C12U A15G U72C A75U, 1.13.
For C4G A5G U58C, the self-cleavage is 0.58.
In the case of C4G A18G C59U U60G U80C, the self-cleavage turned out to be 0.31.
For A3U C29G U43C G70C, the self-cleavage was determined as 0.14.
Under A3U C17U U25C U48C A64G U69A stands 0.15; under A3U U31C C62U U72A, 0.12.
The result for A3U U25C A35G A64C reads 0.19; that for C4G A35G U54C C68U, 1.19.
Under A3U G7A U25C A64G A65G A75G stands 0.06; under A3U U41A G55A, 0.14; under A3U G10A A13G A47G U54G, 0.41.
Take A3U G55A A57G U67A G73U: the self-cleavage was determined as 0.19.
Under C4U A5G A18G A45G U58G U60A U66A stands 0.08; under A3U U67A U69C U72C, 0.4; under C4G G19A U60A C62G U67A, 0.12.
Under A3U G8U A15G U43G U49A stands 0.34; under A3U C11G A18C U25C, 0.34; under A3U C38G A56U U58C A77G, 0.13.
Under A3U A57G U69A stands 0.67; under C4G C17G A28U C59A U67C, 0.06; under A3U G8U C17U U43A, 0.37.
For A3U U26C U80A, the self-cleavage is 0.69.
Under A3U C12A U41A A45U A56U A77G stands 0.07; under C4A U58C U78G, 1.05; under A3U G6A C37U U51A U72G, 0.11.
Regarding A3U G7A A56G, the self-cleavage turned out to be 0.32.
The result for A3U A47G U51C reads 1.04; that for A3U G10A A15U C29U A35U C59U U74A, 0.05.
The result for C4G G9U A18U U41A A75U U76A reads 0.07; that for A3U C4U U60A, 0.84; that for A3U G19U A35G U51A U69C, 0.87.
Under C4A U49C C62A G63C stands 0.15; under C4A A21C U43C U72G G73A U78C, 0.14; under C4A A20G C32U U43C U49A U80C, 0.29.
As to C4U A13G U41C A65G U66C, the self-cleavage stood at 0.28.
Under C4A C37A U41C U51C A57C U72A stands 0.09; under A3U U31C A56G U67C C71A, 0.15; under C4A A18G U26C U43C G55A U58A, 0.16.
The result for A3U C50U A65G reads 0.5; that for A3U G46A U66C U80C, 0.1; that for A3U G22A A47U, 0.38.
Under C4A G33A A35U C37A U58G U66C stands 0.14.
As to A3U U25C U60C, the self-cleavage was found to be 0.07.
For C4G U31C U41C U51C G73A, the self-cleavage amounted to 1.19.
In the case of A3U A75G U80C, the self-cleavage turned out to be 0.65.
The result for A3U G9U A20C A56G reads 0.27.
